# Data published in the BET-seq Pho4 binding data (Le et al. 2018).
# The other results are listed elsewhere or left out. Values were computed here from the reads of four pooled replicates and scatter widely.
# Target: T1, Pho4 (S. cerevisiae) (UniProt P07270)
# T1 sequence: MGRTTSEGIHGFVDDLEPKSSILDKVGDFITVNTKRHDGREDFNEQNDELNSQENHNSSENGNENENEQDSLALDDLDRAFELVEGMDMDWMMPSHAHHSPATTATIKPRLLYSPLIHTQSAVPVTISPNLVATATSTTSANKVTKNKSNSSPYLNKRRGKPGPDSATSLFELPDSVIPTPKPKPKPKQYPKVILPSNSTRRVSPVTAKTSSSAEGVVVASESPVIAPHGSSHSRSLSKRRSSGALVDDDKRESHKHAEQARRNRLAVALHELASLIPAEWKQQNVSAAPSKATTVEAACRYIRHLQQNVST
# Experiment: relative binding free energy (BET-seq); higher = weaker binding
# Conditions: reference: library average
row,Sequence,relative binding free energy
1,ATTCACACGTGAGGTT,0.25 kcal/mol
2,TAGGACACGTGGGATA,-0.1 kcal/mol
3,GCGTGCACGTGGATGT,0.14 kcal/mol
4,TTACGCACGTGTTGTA,-0.09 kcal/mol
5,TGGCGCACGTGGGCGC,-0.19 kcal/mol
6,GGTATCACGTGGGAAC,0.24 kcal/mol
7,TTTTACACGTGTGTCT,0.1 kcal/mol
8,ATTGACACGTGAAATT,0.33 kcal/mol
9,TTGTGCACGTGGTGCA,-0.14 kcal/mol
10,GGGCGCACGTGGTTTA,-0.09 kcal/mol
11,CTTTTCACGTGATTGA,0.29 kcal/mol
12,GGGGACACGTGATGGG,0.05 kcal/mol
13,AGCTGCACGTGACGGT,0.15 kcal/mol
14,CTTTGCACGTGTATAT,-0.01 kcal/mol
15,TGGTTCACGTGTGTGC,0.31 kcal/mol
16,TGTGTCACGTGTTTAA,0.06 kcal/mol
17,ATGATCACGTGAGTGC,0.4 kcal/mol
18,TTGGTCACGTGCCCGT,0.17 kcal/mol
19,TTTGACACGTGGGTGG,-0.03 kcal/mol
20,TATGACACGTGGTGGC,0.1 kcal/mol
21,TATGACACGTGGAGTT,0.04 kcal/mol

row,Sequence,relative binding free energy
1,GGATGCACGTGTTTGA,0.11 kcal/mol
2,CAGGACACGTGGGCTG,0.03 kcal/mol
3,GTCGTCACGTGATTTG,0.29 kcal/mol
4,CTTGGCACGTGGATAG,-0.09 kcal/mol
5,TTCATCACGTGGGTCT,0.04 kcal/mol
6,GAGGTCACGTGTCGTG,0.32 kcal/mol
7,ATTTACACGTGAGGGT,0.24 kcal/mol
8,TGTCGCACGTGGGGCT,-0.27 kcal/mol
9,CAAGTCACGTGTTTAG,0.21 kcal/mol
10,CTCTGCACGTGGTTTG,-0.1 kcal/mol
11,CTCGTCACGTGTGTAG,0.13 kcal/mol
12,TGGTGCACGTGATTGG,0.14 kcal/mol
13,TGTGGCACGTGCTGAC,-0.09 kcal/mol
14,ATGTGCACGTGCATGT,-0.24 kcal/mol
15,AGAAGCACGTGTGGAA,0.04 kcal/mol
16,CTGGGCACGTGATTGG,-0.11 kcal/mol
17,ATGTTCACGTGTACTG,0.15 kcal/mol
18,TGTGCCACGTGGTATG,-0.31 kcal/mol
19,GGAAACACGTGGGTGC,-0.03 kcal/mol
20,GAAGTCACGTGTATGA,0.15 kcal/mol
21,ATGGACACGTGGTCTG,-0.13 kcal/mol

row,Sequence,relative binding free energy
1,TATGGCACGTGTGGAA,-0.04 kcal/mol
2,ATGGTCACGTGCGGTC,0.07 kcal/mol
3,GGTTGCACGTGAGTAT,0.19 kcal/mol
4,CTGAACACGTGGGTGG,-0.05 kcal/mol
5,GCGCACACGTGTTGGT,0.14 kcal/mol
6,TGTCACACGTGTGTTG,0.04 kcal/mol
7,CAGTGCACGTGGTCGG,-0.06 kcal/mol
8,ACTTGCACGTGAGTTT,0.08 kcal/mol
9,CGAGTCACGTGACTGG,0.26 kcal/mol
10,TGGCTCACGTGGGTGG,0.13 kcal/mol
11,TTTGGCACGTGTGAAG,0.1 kcal/mol
12,CGGTGCACGTGGGCGA,-0.18 kcal/mol
13,ATTGGCACGTGCGGAA,-0.18 kcal/mol
14,CGGGTCACGTGTCCGG,0.1 kcal/mol
15,TGCTTCACGTGTGTTG,0.23 kcal/mol
16,TTGGTCACGTGATTGT,0.17 kcal/mol
17,TTTTTCACGTGTATTG,0.27 kcal/mol
18,ATTCGCACGTGGTGTT,-0.24 kcal/mol
19,GCATGCACGTGTTTGG,-0.01 kcal/mol
20,GGCTTCACGTGATTAT,0.52 kcal/mol
21,TATTACACGTGTATGG,0.16 kcal/mol
